These are yes or no findings as the source states them, for the method shown. For part of these data: In cells and extracts the contact can be indirect. Some binding calls cover weakened binding; strength is not graded here. Where a sequence is shown, tags or fusion partners need not be part of it.
What was measured:
[1] = biological target: T1, human SYCE2 (1–218), yeast two-hybrid fusion (human) (UniProt Q6PIF2); test: two-hybrid; Matchmaker Gold Y2H grid; Y187[pGBKT7-bait] mated with Y2HGold[pGADT7-target]; SD/-Ade/-His/-Leu/-Trp with aureobasidin A and X-α-Gal; four reporters ADE1, HIS3, AUR-1C, MEL1; 30°C, 5 days
T1 sequence: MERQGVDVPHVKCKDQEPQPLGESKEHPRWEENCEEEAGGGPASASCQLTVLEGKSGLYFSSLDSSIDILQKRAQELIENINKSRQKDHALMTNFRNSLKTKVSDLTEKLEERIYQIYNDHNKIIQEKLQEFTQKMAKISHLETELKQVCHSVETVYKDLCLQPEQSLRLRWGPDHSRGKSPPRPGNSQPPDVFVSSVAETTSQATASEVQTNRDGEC

[2] = biological target: human SYCP1 (1–811), yeast two-hybrid fusion (human) (UniProt Q15431); test: as above
[3] = biological target: T2, human TEX12 (1–123), yeast two-hybrid fusion (human) (UniProt Q9BXU0); test: as above
T2 sequence: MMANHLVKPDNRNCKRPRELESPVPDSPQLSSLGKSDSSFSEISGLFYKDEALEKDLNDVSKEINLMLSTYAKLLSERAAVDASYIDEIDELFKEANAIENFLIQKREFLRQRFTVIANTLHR

[4] = biological target: T3, human SYCP3 (1–236), yeast two-hybrid fusion (human) (UniProt Q8IZU3); test: as above
T3 sequence: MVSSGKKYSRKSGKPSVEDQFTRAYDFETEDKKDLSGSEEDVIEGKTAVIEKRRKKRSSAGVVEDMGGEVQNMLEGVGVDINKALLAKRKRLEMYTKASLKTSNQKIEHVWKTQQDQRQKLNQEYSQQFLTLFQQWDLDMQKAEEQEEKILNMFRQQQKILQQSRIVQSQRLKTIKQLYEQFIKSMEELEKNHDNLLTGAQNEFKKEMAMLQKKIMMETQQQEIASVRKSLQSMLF

[5] = biological target: T4, MBP–SYCE2_(57–165) (human) (UniProt Q6PIF2); test: pull-down; amylose pull-down after co-expression in bacteria of MBP-fusion SYCE2 constructs (bait) with His-tagged TEX12 or SYCE2 constructs; lysis in 20 mM Tris pH 8.0, 500 mM KCl, 2 mM DTT; 1 h at 4°C; maltose elution; Coomassie-stained SDS–PAGE
T4 sequence: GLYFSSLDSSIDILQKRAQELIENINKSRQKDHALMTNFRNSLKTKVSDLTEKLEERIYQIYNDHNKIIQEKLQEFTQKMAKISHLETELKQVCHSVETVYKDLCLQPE

[6] = biological target: T4, MBP–SYCE2_(57–165) (human); test: co-purification (sequential Ni–NTA and amylose affinity, TEV cleavage, anion exchange); MBP–SYCE2_(57–165) co-expressed in bacteria with His–TEX12 or His–TEX12_(49–123); from clarified lysate; tags cleaved on the amylose column, then Resource Q
MBP–SYCE2_(57–88) = biological target: T5, MBP–SYCE2_(57–88) (human, UniProt Q6PIF2 57-88); test: pull-down; amylose pull-down after co-expression in bacteria of MBP-fusion SYCE2 constructs (bait) with His-tagged TEX12 or SYCE2 constructs; lysis in 20 mM Tris pH 8.0, 500 mM KCl, 2 mM DTT; 1 h at 4°C; maltose elution; Coomassie-stained SDS–PAGE
T5 construct: human SYCE2, residues 57–88 (α1 region); Monomer by SEC–MALS; also called α1 region of SYCE2; source: E. coli Rosetta 2 (DE3); co-expressed (pRSFDuet-1), in clarified lysate for the pull-down; individually expressed, purified on amylose resin for SEC–MALS; not shown: MBP, N-terminal, kept
T5 chain (looked up): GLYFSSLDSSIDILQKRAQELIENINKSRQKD

MBP–SYCE2 (1–218) = biological target: T6, MBP–SYCE2 (1–218) (human, UniProt Q6PIF2 1-218); test: as above
T6 construct: Tetramer by SEC–MALS; also called full-length SYCE2; source: E. coli Rosetta 2 (DE3); co-expressed (pRSFDuet-1), in clarified lysate for the pull-down; individually expressed, purified on amylose resin for SEC–MALS; not shown: MBP, N-terminal, kept
T6 sequence (looked up): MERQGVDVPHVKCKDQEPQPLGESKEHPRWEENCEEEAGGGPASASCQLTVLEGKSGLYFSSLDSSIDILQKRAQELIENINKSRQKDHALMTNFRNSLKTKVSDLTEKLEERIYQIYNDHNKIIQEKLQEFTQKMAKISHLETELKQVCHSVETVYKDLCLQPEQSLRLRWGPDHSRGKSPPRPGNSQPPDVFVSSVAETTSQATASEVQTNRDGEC

[7] = biological target: T7, SYCE2_(57–165), tag cleaved (human, UniProt Q6PIF2 57-165); test: SEC; size-exclusion chromatography of the co-purified, tag-cleaved SYCE2_(57–165)–TEX12 complex, fractions on Coomassie-stained SDS–PAGE, compared with His-TEX12; both purified
T7 construct: also called central conserved region of SYCE2; source: E. coli Rosetta 2 (DE3), co-expressed with TEX12 constructs, co-purified (Ni–NTA, amylose, TEV cleavage, Resource Q); not shown: MBP, N-terminal, cleaved
T7 sequence (looked up): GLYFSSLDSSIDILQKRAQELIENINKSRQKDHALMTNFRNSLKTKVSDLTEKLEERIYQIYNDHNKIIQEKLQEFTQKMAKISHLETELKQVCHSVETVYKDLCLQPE

[8] = biological target: T8, MBP–SYCE2_(88–165) (human) (UniProt Q6PIF2); test: pull-down; amylose pull-down after co-expression in bacteria of MBP-fusion SYCE2 constructs (bait) with His-tagged TEX12 or SYCE2 constructs; lysis in 20 mM Tris pH 8.0, 500 mM KCl, 2 mM DTT; 1 h at 4°C; maltose elution; Coomassie-stained SDS–PAGE
T8 sequence: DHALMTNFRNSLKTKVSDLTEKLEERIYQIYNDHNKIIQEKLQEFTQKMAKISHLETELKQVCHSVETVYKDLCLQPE

Binder | binding [1] | binding [3] | binding [5] | other results
human SYCP1 (1–811), yeast two-hybrid fusion (domain or fragment, UniProt Q15431 1-811) MEKQKPFALFVPPRSSSSQVSAVKPQTLGGDSTFFKSFNKCTEDDFEFPFAKTNLSKNGENIDSDPALQKVNFLPVLEQVGNSDCHYQEGLKDSDLENSEGLSRVYSKLYKEAEKIKKWKVSTEAELRQKESKLQENRKIIEAQRKAIQELQFGNEKVSLKLEEGIQENKDLIKENNATRHLCNLLKETCARSAEKTKKYEYEREETRQVYMDLNNNIEKMITAFEELRVQAENSRLEMHFKLKEDYEKIQHLEQEYKKEINDKEKQVSLLLIQITEKENKMKDLTFLLEESRDKVNQLEEKTKLQSENLKQSIEKQHHLTKELEDIKVSLQRSVSTQKALEEDLQIATKTICQLTEEKETQMEESNKARAAHSFVVTEFETTVCSLEELLRTEQQRLEKNEDQLKILTMELQKKSSELEEMTKLTNNKEVELEELKKVLGEKETLLYENKQFEKIAEELKGTEQELIGLLQAREKEVHDLEIQLTAITTSEQYYSKEVKDLKTELENEKLKNTELTSHCNKLSLENKELTQETSDMTLELKNQQEDINNNKKQEERMLKQIENLQETETQLRNELEYVREELKQKRDEVKCKLDKSEENCNNLRKQVENKNKYIEELQQENKALKKKGTAESKQLNVYEIKVNKLELELESAKQKFGEITDTYQKEIEDKKISEENLLEEVEKAKVIADEAVKLQKEIDKRCQHKIAEMVALMEKHKHQYDKIIEERDSELGLYKSKEQEQSSLRASLEIELSNLKAELLSVKKQLEIEREEKEKLKREAKENTATLKEKKDKKTQTFLLETPEIYWKLD | no binding | no binding |  | binding [2]: binds; binding [4]: no binding
His–TEX12 (1–123) (natural protein, human, UniProt Q9BXU0 1-123, looked up, source: E. coli Rosetta 2 (DE3), co-expressed (pRSFDuet-1), in clarified lysate; not shown: His-tag, N-terminal, kept) MMANHLVKPDNRNCKRPRELESPVPDSPQLSSLGKSDSSFSEISGLFYKDEALEKDLNDVSKEINLMLSTYAKLLSERAAVDASYIDEIDELFKEANAIENFLIQKREFLRQRFTVIANTLHR |  |  | binds | binding [6]: binds
His–TEX12_(49–123) (domain or fragment, UniProt Q9BXU0 49-123) KDEALEKDLNDVSKEINLMLSTYAKLLSERAAVDASYIDEIDELFKEANAIENFLIQKREFLRQRFTVIANTLHR |  |  | binds | binding [6]: binds; binding (MBP–SYCE2_(57–88)): binds; binding (MBP–SYCE2 (1–218)): binds
TEX12 (1–123), tag cleaved (natural protein, human, UniProt Q9BXU0 1-123, looked up, not shown: His-tag, N-terminal, cleaved) MMANHLVKPDNRNCKRPRELESPVPDSPQLSSLGKSDSSFSEISGLFYKDEALEKDLNDVSKEINLMLSTYAKLLSERAAVDASYIDEIDELFKEANAIENFLIQKREFLRQRFTVIANTLHR |  |  |  | binding [7]: binds
human SYCP3 (1–236), yeast two-hybrid fusion (protein, UniProt Q8IZU3 1-236) MVSSGKKYSRKSGKPSVEDQFTRAYDFETEDKKDLSGSEEDVIEGKTAVIEKRRKKRSSAGVVEDMGGEVQNMLEGVGVDINKALLAKRKRLEMYTKASLKTSNQKIEHVWKTQQDQRQKLNQEYSQQFLTLFQQWDLDMQKAEEQEEKILNMFRQQQKILQQSRIVQSQRLKTIKQLYEQFIKSMEELEKNHDNLLTGAQNEFKKEMAMLQKKIMMETQQQEIASVRKSLQSMLF | no binding | no binding |  | binding [4]: binds
His–SYCE2 (1–218) (protein, UniProt Q6PIF2 1-218) MERQGVDVPHVKCKDQEPQPLGESKEHPRWEENCEEEAGGGPASASCQLTVLEGKSGLYFSSLDSSIDILQKRAQELIENINKSRQKDHALMTNFRNSLKTKVSDLTEKLEERIYQIYNDHNKIIQEKLQEFTQKMAKISHLETELKQVCHSVETVYKDLCLQPEQSLRLRWGPDHSRGKSPPRPGNSQPPDVFVSSVAETTSQATASEVQTNRDGEC |  |  | binds | binding [8]: binds
MBP-TEX12_(24–123) (domain or fragment, human, UniProt Q9BXU0 24-123, looked up, Dimer by SEC–MALS; source: E. coli Rosetta 2 (DE3), individually expressed, purified on amylose resin; not shown: MBP, N-terminal, kept) VPDSPQLSSLGKSDSSFSEISGLFYKDEALEKDLNDVSKEINLMLSTYAKLLSERAAVDASYIDEIDELFKEANAIENFLIQKREFLRQRFTVIANTLHR |  |  | binds | binding (MBP–SYCE2_(57–88)): binds; binding (MBP–SYCE2 (1–218)): binds
DEIDELFKEANAIENFLIQKREFLRQRFTVIANTLHR (domain or fragment, UniProt Q9BXU0 87-123) [His–TEX12 87–123] |  |  | binds | binding (MBP–SYCE2_(57–88)): binds; binding (MBP–SYCE2 (1–218)): binds
human TEX12 (1–123), yeast two-hybrid fusion (protein, UniProt Q9BXU0 1-123) MMANHLVKPDNRNCKRPRELESPVPDSPQLSSLGKSDSSFSEISGLFYKDEALEKDLNDVSKEINLMLSTYAKLLSERAAVDASYIDEIDELFKEANAIENFLIQKREFLRQRFTVIANTLHR | binds | binds |  | 
human SYCE2 (1–218), yeast two-hybrid fusion (protein, UniProt Q6PIF2 1-218) MERQGVDVPHVKCKDQEPQPLGESKEHPRWEENCEEEAGGGPASASCQLTVLEGKSGLYFSSLDSSIDILQKRAQELIENINKSRQKDHALMTNFRNSLKTKVSDLTEKLEERIYQIYNDHNKIIQEKLQEFTQKMAKISHLETELKQVCHSVETVYKDLCLQPEQSLRLRWGPDHSRGKSPPRPGNSQPPDVFVSSVAETTSQATASEVQTNRDGEC |  | binds |  | 
human SYCE2 (57–165), yeast two-hybrid fusion (domain or fragment, UniProt Q6PIF2 57-165) GLYFSSLDSSIDILQKRAQELIENINKSRQKDHALMTNFRNSLKTKVSDLTEKLEERIYQIYNDHNKIIQEKLQEFTQKMAKISHLETELKQVCHSVETVYKDLCLQPE |  | binds |  | 
human TEX12 (49–123), yeast two-hybrid fusion (domain or fragment, UniProt Q9BXU0 49-123) KDEALEKDLNDVSKEINLMLSTYAKLLSERAAVDASYIDEIDELFKEANAIENFLIQKREFLRQRFTVIANTLHR | binds |  |  | 

Source: paper PMC3411106, “Structural analysis of the human SYCE2–TEX12 complex provides molecular insights into synaptonemal complex assembly” (Open Biology, 2012)
